# Reference: article PMC12136788
# This is one part of the list.
# T1: UNK ZnF1-3 (human, UniProt Q9C0B0 31-174)
# T1 sequence: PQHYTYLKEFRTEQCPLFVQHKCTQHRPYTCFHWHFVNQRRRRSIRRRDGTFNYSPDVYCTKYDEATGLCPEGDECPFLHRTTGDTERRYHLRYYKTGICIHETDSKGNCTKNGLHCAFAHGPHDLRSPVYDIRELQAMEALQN
# B1: 228337185_228356263_158_CDS_ENSG00000173744_ENST00000409171|human|control|control (ssRNA)
# RNA: GGGAGUUCUACAGUCCGACGAUCCAGGCUGCCGGAGCAGGAGGUACACACGAAGGAGCCGACCGUCAUGUUAACGUAGGUGGGGCCGCGCUGGUCGCAGUCGAAGCACUUUCGGUUGUGCGGGAGGCCGGUCAUGUCCCGCAGCAACAGAGGAUUGAGCAUCA
# B2: chr4:108954403:108954404:+_ENSG00000138796_ENST00000309522|hu_mus|FALSE|FALSE (ssRNA)
# RNA: GGGAGUUCUACAGUCCGACGAUCAGUAUCCAGUCCAACAUAGUCAAGAAGCUCAAACGGACCCAUGGGAUACCCAGCUCCCAGCUUCAUCGCUGUAUCGAUGUCUUCCUUAGACGCAUCGCCUCGCUCGUGUAGCCUGACGGCCAACAGAGGAUUGAGCAUCA
# B3: chr17:65740002:65740003:+_ENSG00000130935_ENST00000581375|hu_hu|FALSE|FALSE (ssRNA)
# RNA: GGGAGUUCUACAGUCCGACGAUCACACCGUUCUUGCCUGGAUGAAGCAAGAGUUCACAUAAAAGAGCUUUAUAAAAUGUCUAUGAAGGAGAAUUGAUAAUAUCAGAAGAGCUCCAGCACUUCAAUUGAAUAUAAUCCUCUAUUCAACAGAGGAUUGAGCAUCA
# B4: chr11:85347198:85347199:+_ENSG00000171204_ENST00000358867|hu_mus|motif|central (ssRNA)
# RNA: GGGAGUUCUACAGUCCGACGAUCCCUUGCACGUGGUUUUUCACAUAUAUUGUAAUGAUGUAAGCCAGUAAAAGCUCCCAUUACGGUCUGAAAGAACAGAGGAAUAGCCAUUGCUUUCAUCCCAGUUUGACAAAGGAGCAACCACAACAGAGGAUUGAGCAUCA
# B5: 60013606_60014000_3223_CDS_ENSMUSG00000020538_ENSMUST00000020846|mouse|control|control (ssRNA)
# RNA: GGGAGUUCUACAGUCCGACGAUCGGUGUGCUCCCGCCAUGUGGGCCGUGGCUCCAGCUCAGCUGUAGUGCCUCCUUUGCCACUGGAACCUGCCCUCCUCCUCAGACUGCGAUCCAGGAGCUGGUGUGUCCGGGCAGGACUUGCCAACAGAGGAUUGAGCAUCA
# B6: chr2:69032557:69032558:-_ENSMUSG00000005233_ENSMUST00000005365|mus_mus|motif|central (ssRNA)
# RNA: GGGAGUUCUACAGUCCGACGAUCAUUGGCAAGAAAAGCUGAAAAAUUGUUGGUCUUCCUGACUUUCUCCUGAAAUUCUGCGGGGCACUCAAGAUGAGGCGAACUGUCGUACACUUCAUAUUCCUUAGCUUCAUUUAUGCUCAUCAACAGAGGAUUGAGCAUCA
# B7: chr5:128440902:128440903:+_ENSG00000066583_ENST00000173527|hu_mus|hu_hu_hu_mus_True|48_78 (ssRNA)
# RNA: GGGAGUUCUACAGUCCGACGAUCUUGAACGGUGCUGCCAAGUCCUUUGGGGUAUUGUUCUGUUACAAUAACUGGAAUCCCUAAGAUCCGGGCCCCUUGCAACAGUCUCUGUCCCACACUAAUGAUGUCCCCAAAGUAUUUGAUCAACAGAGGAUUGAGCAUCA
# B8: chr2:9570881:9570882:+_ENSG00000119203_ENST00000238112|hu_mus|hu_hu_hu_mus_False|18_28 (ssRNA)
# RNA: GGGAGUUCUACAGUCCGACGAUCACUUGUCUUCUGAAGGAACCAGGGCAGGGCUCCACAGUGAUCCAAAUGGAAAUGACUGAUCAACAGAAGGUCGAUCUCAGCUGGGUCAAUUAAAUCAAUAUAAGGAAGGGCAUCCAUUCCCAACAGAGGAUUGAGCAUCA
# B9: chr2:198351390:198351391:-_ENSG00000144381_ENST00000345042|hu_hu|hu_hu_hu_mus_False|58_108 (ssRNA)
# RNA: GGGAGUUCUACAGUCCGACGAUCUCAUUCUCACUCUCCACAGAAAGGCUGCUUCUGAACUCUCAUGUGGUGACACAGCACUAAAAUCCUGAUGCUCACAGAACAGUAGAGAUGCCUCAGUGAUUUAAGUUGAAAGCAGGACACCAACAGAGGAUUGAGCAUCA
# B10: chr1:178670160:178670161:-_ENSMUSG00000057335_ENSMUST00000057037|mus_hu|motif|central (ssRNA)
# RNA: GGGAGUUCUACAGUCCGACGAUCUUGAGGUCUUGGAUCACCAGAUCGACCGUUGUUUCCUUCUGGUGUUUUGGAAUGAACGGAUGGAGGAAUCUUUCGGAAGUUGAGGCUUUCAUCAAAAACACGAUCAACCAACUCUUCUCUCAACAGAGGAUUGAGCAUCA
# B11: chr4:57314706:57314707:+_ENSG00000128050_ENST00000264221|hu_mus|hu_hu_hu_mus_True|58_88 (ssRNA)
# RNA: GGGAGUUCUACAGUCCGACGAUCCAGAAUUUCAAAAAUAGCUUGUGUAGCAUGACUCAUGAUGUCCACUUCAGUCUGGCCUAUAAGAAGGCCAGCAAAACAGAAUUUUGCAGCAAUGAGUUGCUCCUCAGACCACUGUGGAUCCAACAGAGGAUUGAGCAUCA
# B12: 29840190_29843829_555_CDS_ENSG00000197321_ENST00000375400|human|control|control (ssRNA)
# RNA: GGGAGUUCUACAGUCCGACGAUCGCCGAUGUGGGGGCUGGCAGGGUCGCUGGCUCUCAUGUAUCGAGGGGUGUCUUCCUCCAGCAGGCGGUGAGUCACCAAUCCUGUGCAGCUCUGCAAGAGGAUGGGCUGAGUGUCAUUUUCCAACAGAGGAUUGAGCAUCA
# B13: chr7:71034872:71034873:-_ENSMUSG00000052040_ENSMUST00000063694|mus_mus|FALSE|FALSE (ssRNA)
# RNA: GGGAGUUCUACAGUCCGACGAUCGGCCAAUUCUCCACAUCAAAAUGAAGAGAGGUCUCUGUAAGAUAACCCAUGUCCAUCCCAAACCCACCCACCACCCAAUACACACUCACGCGCGCGCGCACACACACACACACACACACACAACAGAGGAUUGAGCAUCA
# B14: 78614377_78614497_1087_CDS_ENSG00000149256_ENST00000278550|human|control|control (ssRNA)
# RNA: GGGAGUUCUACAGUCCGACGAUCGCCGCCGGCAGGGGGCUCUCCGGAGAGCGAGUGGUCCGUGGGGGCCGGGCUGGGGUUGCUCCUCGGCGUGAAGUUGCCCCGGUUCAGGGAGUUAAUGGAGGCCGCGUGGUGCUGGUUGGGCAACAGAGGAUUGAGCAUCA
# Biological target: T1, UNK ZnF1-3
# Assay: nsRBNS (natural sequence RNA bind-n-seq); RBNS binding buffer (assumed for nsRBNS): 25 mM Tris pH 7.5, 150 mM KCl, 3 mM MgCl2, 0.01% Triton X-100, 500 ug/ml BSA, 20 U/ml SUPERase-In, 4 C; UNK is unkempt and MSI1 is Musashi-1; names of the RNAs are library labels; protein concentration not given here; high values mean tight binding
row,Binder,binding signal
1,B1,0.986 enrichment R
2,B2,1.01 enrichment R
3,B3,1.01 enrichment R
4,B4,1.93 enrichment R
5,B5,0.666 enrichment R
6,B6,0.93 enrichment R
7,B7,0.633 enrichment R
8,B8,1.5 enrichment R
9,B9,1.22 enrichment R
10,B10,0.814 enrichment R
11,B11,0.91 enrichment R
12,B12,0.871 enrichment R
13,B13,2.94 enrichment R
14,B14,1.41 enrichment R
